# Measurements from the supplement of paper PMC3334620.
# In all, about 33,000 sequences were measured (“E-score (-0.5 to 0.5)”: median about -0.043, highest 2% from about 0.37 on). The list shows a part of the results.
# Target: T1, Upc2 (UniProt Q12151)
# T1 sequence: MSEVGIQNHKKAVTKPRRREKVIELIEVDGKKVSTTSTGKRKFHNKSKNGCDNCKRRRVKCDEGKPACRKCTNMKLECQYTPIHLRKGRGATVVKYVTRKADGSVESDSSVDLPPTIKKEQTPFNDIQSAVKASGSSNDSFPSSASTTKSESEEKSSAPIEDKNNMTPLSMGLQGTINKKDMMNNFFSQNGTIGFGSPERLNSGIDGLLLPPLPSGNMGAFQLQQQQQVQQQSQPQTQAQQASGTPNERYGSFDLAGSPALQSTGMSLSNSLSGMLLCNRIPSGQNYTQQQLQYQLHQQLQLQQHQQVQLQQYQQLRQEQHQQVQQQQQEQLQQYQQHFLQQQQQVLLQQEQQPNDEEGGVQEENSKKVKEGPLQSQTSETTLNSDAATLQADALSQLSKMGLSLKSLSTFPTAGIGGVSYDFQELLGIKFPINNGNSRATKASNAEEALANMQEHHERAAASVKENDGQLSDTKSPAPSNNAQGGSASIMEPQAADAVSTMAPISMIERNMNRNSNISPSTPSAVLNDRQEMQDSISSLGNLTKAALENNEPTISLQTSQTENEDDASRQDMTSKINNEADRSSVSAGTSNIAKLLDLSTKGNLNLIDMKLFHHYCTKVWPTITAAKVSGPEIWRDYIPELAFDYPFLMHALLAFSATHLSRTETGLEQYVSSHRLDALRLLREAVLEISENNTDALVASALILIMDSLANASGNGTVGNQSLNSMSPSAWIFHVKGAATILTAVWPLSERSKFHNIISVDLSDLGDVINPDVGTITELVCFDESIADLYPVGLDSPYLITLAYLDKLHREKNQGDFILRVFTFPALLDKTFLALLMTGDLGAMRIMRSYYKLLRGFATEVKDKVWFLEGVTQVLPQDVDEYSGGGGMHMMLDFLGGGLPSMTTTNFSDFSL
# Test: PBM E-score (8-mer binding enrichment) (E-score (-0.5 to 0.5)); higher = stronger / more preferred TF binding; most listed sequences are background and not binding sites
# Conditions: protein concentration: 200 nM; construct: GST-full length
# Outline: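 Yeast transcription factors, full-length or as DNA-binding domains, were expressed with a GST tag using PURExpress in vitro transcription/translation. At about 100-200 nM they were applied to universal all-10-mer Agilent arrays, double-stranded by primer extension on fresh or once-stripped slides. Fluorescent anti-GST detected bound protein, and masliner normalised the scans. E-scores for ungapped eight-base words, pooled with reverse complements, came from the Universal PBM Analysis Suite.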
row,Sequence,PBM E-score
1,ACGAACTA,0.348
2,CTCTTCAA,-0.149
3,CTACGGTA,0.122
4,AAGCTCCG,-0.173
5,AGCGAAGA,0.113
6,AAACACAG,-0.0663
7,CCCGTTAC,0.181
8,TCGTCAAA,0.16
9,CCTGCTTA,0.0328
10,CTGCTGTA,0.11
11,GAGATGTA,0.0591
12,GAAGAAGA,-0.05
13,AAACTGCT,-0.0967
14,CGGGGTGC,-0.0984
15,AAACTGTC,0.00335
16,ATCCCCTC,-0.0985
17,CGTACGAA,0.444
18,CTTGTTAA,-0.196
19,AACTGCCT,0.018
20,AAATATCA,-0.025
21,CCCGATAC,0.211
22,GTGCCAAA,-0.00608
23,AAGTTACC,0.0155
24,CCGGCCCA,-0.21
25,CTACGAAC,0.333

row,Sequence,PBM E-score
1,ATACAGAT,-0.0412
2,ACTAGTCA,-0.134
3,CTCGCATA,0.363
4,AAGGGTTG,0.157
5,CCAATAGG,-0.103
6,ATGGTCTA,-0.159
7,CTATTAGA,-0.0645
8,GAAACGTC,0.0446
9,TCTGAACA,0.0695
10,ATGTTCTC,-0.00459
11,CTACTTTC,-0.0896
12,AGCCGGGA,-0.212
13,ATGTCAGC,-0.101
14,ACGGTTCT,-0.0241
15,CGCGGCGA,-0.148
16,AACGGACG,0.138
17,AGAGTGAT,-0.0959
18,CTTTAACA,-0.0912
19,GTTAATTA,0.23
20,ATTCAAAA,0.0167
21,TGATGCCA,-0.0544
22,CGGTTGTA,0.0584
23,CGGCGAAC,-0.0166
24,CCGCATTA,0.0256
25,ATACCCTC,0.00541

row,Sequence,PBM E-score
1,AGTTATGA,-0.151
2,ATCGAGTA,-0.0003
3,CTTTGTGC,-0.021
4,TCCACTCA,-0.17
5,GTGTGCGA,0.164
6,CGGTCGAC,0.119
7,GTTGAGGA,0.0815
8,AAAATAAA,0.109
9,ACCAAAAG,-0.163
10,AATGCAGC,-0.124
11,GGGGCATA,-0.174
12,CCGGATAG,-0.00515
13,CCAGTAAA,0.0554
14,AGTATTCA,-0.0848
15,TCATCCCA,-0.051
16,GACTCTAA,-0.22
17,ACCGAGTG,0.0119
18,TCATAAGA,0.144
19,CGCGGTAC,0.228
20,TACATCCA,-0.0227
21,AGGCTGCG,-0.191
22,CCTGGGCC,-0.169
23,TAATTTCA,0.127
24,TATTGAGA,-0.0242
25,CCTTTAAG,-0.158

row,Sequence,PBM E-score
1,ACCGGCGG,-0.0546
2,CTAGGTGC,-0.223
3,ACAGAGAA,-0.126
4,CGGCCGAC,-0.0801
5,ACTGGCGG,-0.0357
6,GTAAGTCA,0.203
7,CGACCGGA,0.161
8,GTGGAAGA,-0.0422
9,ACTTCCCA,-0.06
10,GCATCAAC,0.14
11,AAAATTTA,0.0992
12,CCTGTAAG,-0.105
13,CGAAAAAG,0.238
14,ACGCCCGA,-0.0248
15,ACTTCCAA,-0.12
16,ATGCACAT,0.0271
17,ATTTGTCA,0.15
18,ATGTAAGA,0.0356
19,ACACGACG,0.267
20,AATCAAGT,-0.106
21,ACTAGAAT,0.0374
22,AACTATGT,-0.187
23,ACCAGGGA,-0.189
24,CCGGGGAG,-0.206
25,AGCATTTG,-0.201

row,Sequence,PBM E-score
1,AAAGAAGG,-0.138
2,GCGAAAGC,0.00449
3,AGTACAGG,0.0302
4,ATAATGTC,0.00514
5,CCGTAACA,0.22
6,CGGCTGGC,0.0413
7,CACTCATA,0.0482
8,CGATGCCA,-0.0744
9,AATTGTTG,-0.188
10,GATAAAGA,0.0607
11,ACAGATTG,-0.127
12,AAGGGCTC,-0.177
13,GTGACTCA,-0.0695
14,ACCACCTG,-0.0336
15,GCAGTCAC,-0.136
16,CAAACCGC,-0.265
17,ACGCGCAA,0.175
18,ACCAATGC,-0.0345
19,CCATCCGG,-0.213
20,CGATATAA,0.157
21,AGAATTGG,-0.195
22,CCGGAAAA,0.0284
23,AATTTGGA,-0.133
24,CAAAGTAA,0.0118
25,ACCCTTCG,-0.0337

row,Sequence,PBM E-score
1,ACTTCAAA,0.00377
2,ACTTTCGG,-0.106
3,AACGATTC,0.393
4,CAAGTCGG,-0.0551
5,GTAGGCAC,-0.077
6,CTACACAG,-0.194
7,ATGACGAA,0.0841
8,CTACCAGC,0.00982
9,ACTCGGAC,-0.0554
10,CAGAGGGC,-0.324
11,ACTACAGG,-0.0483
12,AGTTTGAG,-0.136
13,AGTATGAA,0.00208
14,AGACTGCC,-0.015
15,CACCACCG,-0.119
16,ACTAAGCT,-0.0599
17,AGAAGCGG,-0.222
18,CCGTGGGC,-0.0217
19,AGCCAGTC,-0.162
20,ATGAGGCA,-0.0685
21,GACGTTGC,0.0429
22,ATATGCGC,0.00411
23,ATATCATA,0.234
24,AGGTACCC,-0.277
25,CTTATAGC,0.181

row,Sequence,PBM E-score
1,CATCCAAC,-0.182
2,GCAGTCGC,0.0558
3,ATAGGGGA,-0.186
4,GGCCGTGA,-0.161
5,CGGCACCG,0.133
6,AATGCCGC,0.0774
7,CACGACTC,0.0449
8,GAACAACC,-0.0117
9,CAATGCTC,-0.0336
10,ATTGTAAG,-0.0571
11,CAAACTTG,-0.0902
12,CATAGTAG,0.138
13,CTATGAGC,-0.12
14,AAGTCCCC,-0.0701
15,AACCCGGG,-0.101
16,GAGGGTGA,-0.149
17,TAGCTAGA,-0.114
18,AAGTACGG,0.209
19,TACACCGA,0.0294
20,ATATGCCA,-0.0107
21,AACCCGGT,-0.0316
22,GAAAAGGC,-0.0151
